# Measured values as given in PMC4336329 (PLoS ONE, 2015).
# In all, about 310,000 compounds went through this assay and about 2,200 (0.71%) showed an effect of 50% or more. The effect is printed as a negative number. The list shows a part of the results.
# Target: human ether-à-go-go-related gene (hERG) potassium channel (human, UniProt Q12809)
# Assay: primary screen, population patch clamp on CHO cells stably expressing hERG
# Sequence of human ether-à-go-go-related gene (hERG) potassium channel (Q12809 whole entry, looked up): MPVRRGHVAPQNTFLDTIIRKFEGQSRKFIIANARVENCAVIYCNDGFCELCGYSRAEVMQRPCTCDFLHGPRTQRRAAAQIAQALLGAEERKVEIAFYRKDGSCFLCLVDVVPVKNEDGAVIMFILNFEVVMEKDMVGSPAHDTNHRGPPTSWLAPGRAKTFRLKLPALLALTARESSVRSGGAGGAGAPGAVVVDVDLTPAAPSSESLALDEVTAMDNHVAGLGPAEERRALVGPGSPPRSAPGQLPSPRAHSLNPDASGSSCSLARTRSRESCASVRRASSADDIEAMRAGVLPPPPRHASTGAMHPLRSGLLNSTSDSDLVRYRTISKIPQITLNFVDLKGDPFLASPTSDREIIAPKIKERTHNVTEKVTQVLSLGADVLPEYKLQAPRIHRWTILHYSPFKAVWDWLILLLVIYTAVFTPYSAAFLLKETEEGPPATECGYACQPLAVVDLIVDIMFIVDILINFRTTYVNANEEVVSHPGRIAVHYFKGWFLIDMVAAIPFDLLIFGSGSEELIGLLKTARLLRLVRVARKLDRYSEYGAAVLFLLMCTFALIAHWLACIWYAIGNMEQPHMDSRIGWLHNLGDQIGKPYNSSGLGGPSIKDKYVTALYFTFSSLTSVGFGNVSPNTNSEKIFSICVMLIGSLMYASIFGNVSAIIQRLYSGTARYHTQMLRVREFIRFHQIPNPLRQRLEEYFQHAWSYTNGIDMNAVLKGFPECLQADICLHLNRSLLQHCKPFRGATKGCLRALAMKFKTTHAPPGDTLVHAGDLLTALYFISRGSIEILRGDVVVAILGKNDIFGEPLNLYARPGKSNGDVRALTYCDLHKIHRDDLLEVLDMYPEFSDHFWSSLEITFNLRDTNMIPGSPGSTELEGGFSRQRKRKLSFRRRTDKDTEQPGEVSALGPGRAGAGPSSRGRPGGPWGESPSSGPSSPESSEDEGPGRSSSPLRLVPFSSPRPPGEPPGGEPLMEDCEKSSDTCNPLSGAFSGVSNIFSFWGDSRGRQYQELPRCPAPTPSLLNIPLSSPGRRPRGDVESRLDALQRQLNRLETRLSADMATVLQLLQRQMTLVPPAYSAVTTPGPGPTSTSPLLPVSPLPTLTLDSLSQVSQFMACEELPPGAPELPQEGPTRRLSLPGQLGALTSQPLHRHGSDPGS
row,Compound,"hERG current change (%, negative = inhibition) at 1uM [%]"
1,Cl.c1ccc(Cn2nnnc2CN2CCCC2)cc1,10.1
2,Cc1cc(C)nc(N2CCC(C(=O)Nc3ccc4c(c3)OCCO4)CC2)n1,8.89
3,COc1ccc(OC)c(S(=O)(=O)NCc2cn3c(C)csc3n2)c1,12.3
4,CC1(c2ccccc2Cl)NC(=O)N(CC(=O)NCCC2=CCCCC2)C1=O (centres unmarked),-11.3
5,COc1ccc(NC(=O)c2ccccc2NC(=O)CSc2ccccc2)cc1,16.3
6,CC(=O)Nc1ccc(S(=O)(=O)N(C)CC(=O)OCC(=O)Nc2cccnc2Cl)cc1,9.62
7,CCC(Oc1cc(Cl)ccc1Cl)C(=O)N1CCCN(C)CC1 (centres unmarked),12.4
8,Cc1ccc(N(C(=O)c2csnn2)C(C(=O)NCc2ccccc2)c2ccccn2)cc1 (centres unmarked),-6.33
9,NC(N)=N/N=C/c1ccc(N2CCOCC2)cc1.O=[N+]([O-])O,13.6
10,CC(C)C(=O)Nc1cccc(C(=O)Nc2ccc3c(c2)OCO3)c1,6.5
11,COc1cccc(N2CCN(C(=O)c3ccc4nc(N5CCC(C)CC5)sc4c3)CC2)c1,0.61
12,COc1ccc(NS(=O)(=O)c2ccc(NS(=O)(=O)c3cccs3)cc2)cc1,15.2
13,COC(=O)c1ccc(NC(=O)Cn2cnc3c(nnn3-c3cccc(OC)c3)c2=O)cc1,2.01
14,O=C(COC(=O)c1cccc(Br)c1)Nc1ccc2[nH]c(=O)[nH]c2c1,20.1
15,CN(C)c1cccc(C(=O)N/N=C/c2ccoc2)c1,9.45
16,COC(=O)Cn1cc(/C=C2\C(=O)NC(=O)N(c3ccc(OC)cc3)C2=O)c2ccccc21,11.1
17,CC1CCCC(C)N1/N=C/c1cccc(Br)c1 (centres unmarked),7.83
18,CC(C)C(C(=O)O)N1C(=O)/C(=C/C=C/c2ccco2)SC1=S (centres unmarked),15.6
19,CC(C)CCN1CCN(Cc2ccc(Sc3nncn3C)o2)CC1CCO (centres unmarked),13.8

row,Compound,"hERG current change (%, negative = inhibition) at 1uM [%]"
1,O=C(CN1C(=O)CCC1=O)Nc1nc(-c2ccccn2)cs1,20
2,CC1CCN(CCOc2ccc(C(=O)c3ccccc3)cc2)CC1.O=C(O)C(=O)O,3.49
3,Cc1cccc(NC(=O)C2CCN(S(=O)(=O)c3cccc4nsnc34)CC2)n1,6.3
4,CC(CC(=O)Nc1nccs1)c1ccccc1 (centres unmarked),13.8
5,O=C(COC(=O)c1cccs1)NC1CCCCC1,9.01
6,Cc1ccc(OCC(=O)N/N=C\c2ccncc2)c(C)c1,0.981
7,CN(CC(=O)NCC1CCCCC1)S(=O)(=O)c1ccc(Cl)cc1,16.2
8,CCOC(=O)/C(=N\Nc1ccccc1)N1CC1,20.3
9,CCCCCN(C(=O)CCC(=O)OCC(=O)N1C(C)CCCC1C)c1c(N)n(CCCC)c(=O)[nH]c1=O (centres unmarked),12.8
10,CC1CCCCN1C(=S)NC(=O)c1cc(Br)ccc1Cl (centres unmarked),0.369
11,Cc1cc(C(=O)OCC(=O)Nc2cc(S(=O)(=O)N(C)C)ccc2Cl)c2ccccc2n1,8.57
12,CN(C(=O)c1ccc(NC(=O)Cc2ccc(NC(=O)C3CCCN(C(=O)C4CCC4)C3)cc2)cc1)C1CC1 (centres unmarked),7.35
13,O=C(Nc1sc2c(c1C(=O)c1ccc(Cl)cc1)CCCC2)c1cccnc1,8.92
14,c1ccc(CSc2nnc(-c3ccncc3)o2)cc1,-4.89
15,CCOC(=O)C1(Cc2cccc(Cl)c2)CCCN(CCO)C1 (centres unmarked),5.84
16,CC(=O)c1ccc(N=Nc2c(C)[nH]n(-c3ccccc3)c2=O)cc1,10.2
17,O=C(COc1ccc(S(=O)(=O)N2CCCCC2)cc1)NCc1ccncc1,-17
18,CC1CCCN(S(=O)(=O)c2ccc(S(=O)(=O)NC(C)c3cccs3)cc2)C1 (centres unmarked),3.82
19,CC1=CS(=O)(=O)CC1SC1=NC(C)=N[NH2+]1.[Br-] (centres unmarked),14.1

row,Compound,"hERG current change (%, negative = inhibition) at 1uM [%]"
1,Cc1ccc(/C=N/N=C2/NC(=O)CS2)o1,12
2,CCOC(=O)C1CCN(C(=S)Nc2cccc(C)c2C)CC1,12.3
3,COc1ccc(-n2c(CNc3ccc(C)cc3)nnc2SCC(=O)Nc2nc(-c3ccccc3)cs2)cc1,6.38
4,Cc1ccc(NC2=CC(=O)CC(C)(C)C2)cc1F,8.11
5,CN1CCN(c2ccc(NC(=O)c3cc4ccccc4o3)cc2)CC1,-14.8
6,O=C(NCc1cccs1)C1CCCN1C(=O)Nc1ccccc1[N+](=O)[O-] (centres unmarked),0.73
7,Cc1cc(Cl)ccc1OCC(=O)NCC(c1cccs1)N1CCOCC1 (centres unmarked),-1.73
8,O=[N+]([O-])c1ccc(Cl)cc1Sc1nc2ccccc2o1,6.27
9,O=C(O)CN1C(=O)SC(Nc2ccc(C(=O)O)cc2)C1=O (centres unmarked),5.85
10,Cn1c(CC(=O)Nc2ccc(Cl)c(Cl)c2)nnc1SCC(=O)N1CCN(c2ccccc2)CC1,4.2
11,Oc1ccc(Cl)cc1C=Nc1ccccc1Br,11.3
12,COCCN(C(=O)COC(=O)/C=C/c1ccc(C(F)(F)F)cc1)c1c(N)n(Cc2ccccc2)c(=O)[nH]c1=O,8.12
13,CCOc1ccccc1NC(=O)N1CCCC(c2nc3c(nnn3Cc3ccc(C)cc3)c(=O)[nH]2)C1 (centres unmarked),-5.8
14,CCN(CC(=O)Nc1c(F)cccc1F)C(=O)c1ccc(C(=O)c2ccccc2)cc1,-3.47
15,Cc1cc(NC(=O)Cn2nc3c(cc2=O)CCCC3)ccc1Br,15.2
16,CCOCCCNC(=O)C1CCCN(S(=O)(=O)c2cccc3nsnc23)C1 (centres unmarked),11.1
17,CCOc1ccccc1NC(=O)C(NCCc1ccc(OC)cc1)c1ccccc1 (centres unmarked),11.3
18,CCCc1[nH]nc2c1C1(CCOC1C)C(C#N)=C(N)O2 (centres unmarked),6.85
